Laboratory results published in PubChem BioAssay AID652104 (National Center for Advancing Translational Sciences (NCATS), 2013).
The whole screen tested about 410,000 compounds, of which about 7,200 (1.8%) were called active. Inconclusive results, whose numbers are uncertain, are shown with a selection of clear calls. Calls come from the whole dose curve; as a rule, active = well fitted activation curve with a large enough effect; inconclusive = small, poorly fitted or top-dose-only effect, or another doubt; inactive = no such curve, though single readings can be large or run the other way. No potency is given beside an inconclusive call; the fits are too rough.
Potency is the fitted concentration of half-maximal effect; tags give direction and shape of the fitted curve.

Test: qHTS of TDP-43 Inhibitors; note: nearly all actives have a fitted effect of over 50% in size
Conditions: TDP-43 expressing yeast growth rescue, BacTiter-Glo, 24 h; series mostly up to 46.1 µM
Outline: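 Luminescence from BacTiter-Glo reports growth of TDP-43-expressing yeast after 24 hr at 30 deg C with compound. Cells were raffinose-pregrown to mid-log, then seeded in galactose medium at OD600=0.02.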
For CC1=C(OC(=O)c2ccccc2)C(C)(C)C(c2ccccc2)OC1=O (stereo not drawn), the Potency was inconclusive [activator, partial curve]. For CCOc1ccc(-c2nnc(SCC(=O)NC3CCCCC3)nc2-c2ccc(OCC)c(OC)c2)cc1OC, the Potency was inconclusive [activator, partial curve, poor fit]. With COc1cccc(-c2cc(C(=O)Nc3cccnc3)no2)c1 the Potency was inconclusive [activator, partial curve]. With COC(=O)C1=C(C)N(Cc2ccccc2)C(=S)N[C@H]1c1cccc(C(F)(F)F)c1 the Potency was “inactive”. In the case of O=C(Oc1ccc(/C=N/O)cc1)c1ccccc1, the Potency is reported as active: 11.2 µM. In the case of CCC(=O)N1CCN(c2ccc(NC(=O)c3ccc4c(c3)OCCO4)cc2)CC1, the Potency is reported as “inactive”. For COc1c2ccoc2cc2oc(C)cc(=O)c12, the Potency was inconclusive [activator, partial curve, poor fit]. For O=C(c1ccccc1)c1ccc(OC(=O)N2CCCC2)cc1, the Potency was active: 11.2 µM. For CCN(Cc1ccccc1)C(=O)Cn1c(=O)cc(C)c2c(C)nn(-c3cccc(F)c3)c21, the Potency was “inactive”. In the case of COc1ccccc1OCC(=O)Nc1cc(Cl)ccc1N1CCCCC1, the Potency is reported as inconclusive [activator, partial curve]. With Nc1nc(Nc2ccc(Cl)cc2Cl)nc(C(F)(F)F)n1 the Potency was inconclusive [activator, full curve]. For Cc1cc(Cl)ccc1NNC(=O)c1c(C)noc1C, the Potency was inconclusive [activator, partial curve]. With COc1ccc2c(c1)-c1nc(N)sc1CC2 the Potency was inconclusive [activator, single point]. With Cc1ccc(OCC(=O)Nc2ccccc2Sc2ccc(Cl)cc2)c([N+](=O)[O-])n1 the Potency was inconclusive [activator, partial curve]. With CCOC(=O)C(=Cc1ccc(Br)cc1)C(=O)OCC the Potency was inconclusive [activator, single point]. In the case of Cc1ccc(-c2cc(C(=O)NC3CCCCC3)no2)cc1, the Potency is reported as “inactive”. With C=C1C(=O)[C@]23C[C@H]1CCC2[C@]1(C)C(=O)CC[C@@](C)(C(=O)O)C1C[C@@H]3O (stereo partly drawn) the Potency was active: 12.6 µM. With O=C(NCc1ccccc1)c1c2c(nc3ccccc13)C(=O)N(C1CCCCC1)C2 the Potency was “inactive”. With O=C(NCc1ccc2c(c1)OCO2)C1CC(=O)N(CCc2ccccc2)C1 (stereo not drawn) the Potency was inconclusive [activator, partial curve]. In the case of CCOc1ccc2oc(C(=O)N(C)CC(=O)Nc3ccc(OCC)c(OCC)c3)c(C)c2c1, the Potency is reported as inconclusive [activator, single point]. In the case of CCc1ccccc1N1C(=O)N(Cc2cc(=O)n3ccccc3n2)c2ccccc2S1(=O)=O, the Potency is reported as active: 11.2 µM. In the case of CCCCCCOC(=O)c1ccc(OC(=O)c2cccnc2)cc1, the Potency is reported as “inactive”. For C#CCNCCS(=O)(=O)N(Cc1ccc(Br)cc1)[C@@H](CC(C)C)C(=O)O, the Potency was “inactive”. With S=C(Nc1ccc2nc(-c3ccccn3)c(-c3ccccn3)nc2c1)N1CCCCCC1 the Potency was inconclusive [activator, single point]. In the case of COc1cc(OC)cc(C(=O)Nc2cccc(C(C)=O)c2)c1, the Potency is reported as inconclusive [activator, partial curve]. With CCc1ccc2nc(N(Cc3cccnc3)C(=O)Cc3ccccc3)sc2c1 the Potency was active: 28.2 µM. With COc1ccc(Cc2c(C)nn(-c3nc(C)c(C(=O)Nc4cccc(C(C)=O)c4)s3)c2C)cc1 the Potency was “inactive”. For COc1ccc(-c2sc(C(=O)c3ccc(Cl)cc3Cl)cc2CC(=O)O)cc1, the Potency was “inactive”. In the case of O=C(C#Cc1ccccc1)Nc1ccc(F)cc1, the Potency is reported as inconclusive [activator, single point]. For Cn1c(CSCc2ccccc2Cl)n[nH]c1=S, the Potency was inconclusive [activator, partial curve]. For O=C(Nc1cnc2ccccc2c1)C1COc2ccccc2O1 (stereo not drawn), the Potency was inconclusive [activator, single point]. For COC(=O)COc1c(/C=C\c2nc(O)c([N+](=O)[O-])c(=O)[nH]2)cccc1OC, the Potency was inconclusive [activator, partial curve]. In the case of CCCCS/C(=C(/C#N)C(N)=O)c1cc2c([nH]1)CCCC2, the Potency is reported as inconclusive [activator, single point]. For CCOc1ccc(NC(=O)CCNS(=O)(=O)c2ccc3c(c2)CC(C)N3C(C)=O)cc1 (stereo not drawn), the Potency was inconclusive [activator, single point]. In the case of Cn1c(=O)c2c(-c3ccc(Cl)cc3)ccnc2n(C)c1=O, the Potency is reported as “inactive”. With COc1cc(OC)cc(-c2nnc(SCC(=O)N3CCCCC3)o2)c1 the Potency was inconclusive [activator, partial curve]. With Oc1ccccc1-c1cc(-c2ccc3c(c2)OCCO3)n[nH]1 the Potency was inconclusive [activator, single point]. With Cc1csc(NC(=O)C2CCCN(S(=O)(=O)c3ccc(Br)s3)C2)n1 (stereo not drawn) the Potency was inconclusive [activator, single point]. With CC1(C(=O)OCC(=O)Nc2ccc3ccccc3c2)CC1(Cl)Cl (stereo not drawn) the Potency was inconclusive [activator, single point]. For COc1ccc2nc(N(Cc3cccnc3)C(=O)c3ccc(Cl)cc3)sc2c1, the Potency was inconclusive [activator, single point]. For CC(C(=O)Nc1cccc(Br)c1)c1ccc([N+](=O)[O-])cc1 (stereo not drawn), the Potency was inconclusive [activator, single point]. For N/C(=N\OC(=O)CC1CCCCC1)c1ccc(Cl)cc1, the Potency was inconclusive [activator, partial curve, poor fit]. With CCOC(=O)c1ccc(NC(=O)CSc2nc(NC(=O)c3ccccc3)c3c(C)c(C)oc3n2)cc1 the Potency was inconclusive [activator, partial curve]. For COc1ccc(NC(C)=O)cc1NC(C)C(=O)Nc1ccc(S(=O)(=O)N2CCCCC2)cc1 (stereo not drawn), the Potency was “inactive”. In the case of O=C(NN=Cc1ccc(Cl)cc1Cl)c1ccccc1, the Potency is reported as inconclusive [activator, full curve]. With COC(=O)c1ccc(Cn2nc([N+](=O)[O-])c(Br)c2C)cc1 the Potency was active: 14.1 µM. In the case of O=C(Nc1ccccc1)c1ccc(Cl)c(S(=O)(=O)Nc2ccccc2)c1, the Potency is reported as inconclusive [activator, single point]. For CC(C)c1ccc(C(=O)NC2=NCCS2)cc1, the Potency was inconclusive [activator, partial curve]. With O=C(Cc1cccs1)Nc1ccc(F)c(F)c1 the Potency was inconclusive [activator, partial curve]. For COc1ccc(C(=O)CSC#N)cc1OC, the Potency was inconclusive [activator, single point]. In the case of COc1cccc(C2=NO[C@@H]3C(=O)N(Cc4ccccc4)C(=O)[C@H]23)c1OC, the Potency is reported as active: 12.6 µM. For CCCC(C)(C)C(=O)N1CCC1(C)C(=O)Nc1ccc(OC)c(OC)c1 (stereo not drawn), the Potency was inconclusive [activator, full curve, poor fit]. In the case of COc1ccc(/C(N)=N/OC(=O)Cc2cccs2)cc1OC, the Potency is reported as inconclusive [activator, single point]. In the case of O=C(Nc1ccccc1)c1cccc(S(=O)(=O)NCc2ccco2)c1, the Potency is reported as inconclusive [activator, partial curve]. For Cc1nn(Cc2ccccc2)c(C)c1/C=N/NC(=O)c1ccccc1O, the Potency was “inactive”. With COc1cc2ccc(C(C)=O)c(O)c2cc1OC the Potency was inconclusive [activator, partial curve]. For CSc1ccccc1NC(=O)c1ccc([N+](=O)[O-])cc1, the Potency was inconclusive [activator, single point]. With Cc1ccc(S(=O)(=O)NNC(=O)Nc2ccc(C)c(C)c2)c(C)c1 the Potency was inconclusive [activator, partial curve]. With COc1ccc(OC)c(NC(=O)N2CCC3(CC2)Oc2ccccc2C(=O)N3Cc2ccccc2F)c1 the Potency was inconclusive [activator, single point]. For CC(C)N(Cc1nccn1C)C(=O)C1CCC(=O)N(CCc2ccccc2)C1 (stereo not drawn), the Potency was inconclusive [activator, full curve, poor fit]. For COc1ccc(-c2nc(-c3ccccc3)no2)c(OC)c1, the Potency was inconclusive [activator, single point]. For C[C@H](CO)N1C[C@H](C)[C@@H](CN(C)C(=O)Nc2ccc(C(F)(F)F)cc2)Oc2ccc(NC(=O)C3CC3)cc2C1=O, the Potency was “inactive”. With Clc1ccccc1/C=N/NC1=Nc2cccc3cccc1c23 the Potency was “inactive”. With CCCS(=O)(=O)NC(=O)C1(C)CCN(C(=O)c2cc(C(C)(C)C)nn2C)C1 (stereo not drawn) the Potency was inconclusive [activator, full curve, poor fit]. In the case of FC(F)(F)c1cccc(-c2nc(-c3ccncc3)no2)c1, the Potency is reported as inconclusive [activator, full curve]. With CCOC(=O)c1sc(NC(=O)c2cc(-c3ccc(C)cc3)nc3ccccc23)c(C#N)c1C the Potency was inconclusive [activator, partial curve]. With COCCNC(=O)c1cc(-c2cccc(Cl)c2)on1 the Potency was inconclusive [activator, partial curve]. With COc1ccc(C(OC(=O)c2ccco2)C(=O)NCc2ccco2)cc1 (stereo not drawn) the Potency was inconclusive [activator, full curve, poor fit].
